Measurements taken from ChEMBL document CHEMBL4888484, “Replenishing the malaria drug discovery pipeline: Screening and hit evaluation of the MMV Hit Generation Library 1 (HGL1) against asexual blood stage Plasmodium falciparum ,using a nano luciferase reporter read-out” (2022).
Hit rate of the full screen: of about 150,000 compounds, about 540 (0.36%) showed an effect of 50% or more. This is one part of the list.

tested on: Plasmodium falciparum; experiment: Primary screen in NF54 nanoGlo assay, in single point, at 2uM, 72h; a lower Z score goes with more inhibition; assay type: functional, Erythrocyte; details: timepoint 72 hour

SMILES	% Inhibition	Z score
CC1(C)C[C@@](C)(c2ccc(Cl)cc2)c2ccccc2N1C(=O)COc1ccccc1	14%	-1.69
c1ccc(-c2ncc[nH]2)c(OCCCCN2CCOCC2)c1	-11%	1.05
O=S(=O)(c1ccc(F)cc1F)N(C1CC1)[C@H]1CCCc2ccccc21	-7%	1.13
CO[C@H]1CCCN(C(=O)Nc2ccccc2N2CCCC2=O)CC1	-5%	0.91
Cc1nnsc1C(=O)Nc1cccc(-c2nc3ccccc3s2)c1	-19%	3.22
CC(=O)N1CCC(C(=O)Nc2ccc(OCCCc3ccccc3)cc2)CC1	-11%	1.71
CN1CCN(C)c2cc(NC(=O)CNC(=O)C(C)(C)C)ccc2C1	32%	-3.65
CCCOc1cccc(CCNC(=O)N2CC3CC4CC3C2C4O)c1 (stereo not drawn)	-17%	2.35
CCCc1cnc(N(C)CC(C)(C)CO)nc1	-2%	0.38
Cc1ccc(-n2[nH]c(C(=O)NCc3nccc(C(F)F)n3)cc2=O)cc1	3%	-0.34
O=C(CCNS(=O)(=O)c1ccc(Cl)c(C(F)(F)F)c1)NCCc1ccc2c(c1)OCO2	-1%	0.12
CCc1cnc(C)nc1-c1ccc(C(=O)N(C)[C@@H](CC)c2ccccn2)cc1	-20%	1.9
CN1CCCc2cc(C(=O)N3CCN(c4ccc(F)cc4)CC3)sc21	0%	-0.03
CCn1cc(C2=CCN(C(=O)NCc3cccc(F)c3)CC2)c2cccnc21	-10%	1.31
COCc1cccc(C(=O)N2CCC[C@H]2C2CCC2)c1	-22%	2.78
Cc1oc(C(C)C)nc1C(=O)N[C@H]1COCC1(C)C	0%	0.02
CCc1noc2ncnc(NCc3ccc(OC)cc3)c12	12%	-1.42
Cn1cc(Cl)c(CNC(=O)[C@@H]2CCCN2CC(F)(F)F)n1	-2%	0.25
O=C(N[C@H]1CCCOC1)N[C@@H]1C[C@H]1c1ccccc1F	-15%	2.86
Cc1ccc(N2CCN(C(=O)Cn3nnnc3N)CC2)cc1	-12%	1.68
O=C(CC1CCN(S(=O)(=O)c2cccs2)CC1)NC1CCN(Cc2ccccc2)CC1	-15%	2.01
Cc1ncc(CN(C)C2CCC(C)CC2)cn1 (stereo not drawn)	-4%	0.66
C=CCNCCOc1ccc(Cl)cc1	-1%	0.08
CCN1C(=O)[C@@H]2CC3(CCN(C(=O)CC(C)C)CC3)CN2C1=O	7%	-0.84
CCc1ccc(C2(c3ccc(CC)cc3)C[C@@H]2C(=O)NCc2ccccc2)cc1	-9%	1.42
Cc1noc(C)c1S(=O)(=O)N(C)CCOc1c(Cl)cccc1Cl	4%	-0.59
O=C(O)c1cc2c(cc1C(=O)Nc1ccc(Cl)cc1)=[O+]c1ccccc1-c1ccccc1[O+]=2	33%	-4.71

SMILES	% Inhibition	Z score
CCO[C@@H](C)c1nccn1Cc1nc(C2CC2)n[nH]1	-4%	0.37
CCCn1c(C)cnc1C[C@H]1CCN(C(=O)c2ccc(OC)cc2)C1	-11%	1.38
CCCNC(=O)c1csc(COc2ccc3c(c2)[C@H](c2ccc(C)cc2)N(C(=O)CC(C)C)CC3)n1	-8%	1.1
O=C([C@H]1CCCN(c2ncnc3c2nc2n3CCCCC2)C1)N1CCc2ccccc2C1	-6%	0.89
Cc1cccc(-c2nn(-c3ccccc3)c3nc(OCC(=O)N4CCCCC4)cc(C)c23)c1	-1%	0.09
CCCc1cnc(NCc2cnn(CC)c2)s1	-1%	0.18
CN(C)c1nc[nH]c(=O)c1NC(=O)c1ccc(F)c(Cl)c1F	-10%	1.64
CCOC(=O)c1coc(N2CCC[C@]3(CCCN(Cc4ccccc4)C3)C2)n1	-1%	0.14
O=C(c1coc(CN2CCN(Cc3ccccc3)CC2)n1)N1CCC[C@H]1CO	-11%	2.1
Cn1nc(C(N)=O)c2c1CCN(c1ccncc1F)C2	6%	-1.28
C[C@H](NC(=O)c1coc(NC(=O)c2ccsc2)n1)c1ccccc1	-5%	0.65
O=C(Cc1cccs1)N1CCC(Nc2cccn3ncnc23)CC1	2%	-0.23
COc1ccc(CN2Cc3ccccc3OCC2=O)cc1OC	-1%	0.1
CN(Cc1cncn1C)CC1(N2CCOCC2)CCCCC1	-3%	0.55
O=S(=O)(Cc1ccco1)C1CN(S(=O)(=O)Cc2cc(F)ccc2F)C1	-14%	1.75
CCc1nccn1CCC(=O)N(C)C[C@H]1CCOC1	1%	-0.13
CCC1CC(CC(=O)N[C@@H]2C[C@H]2c2cc(F)c(F)c(F)c2)CCO1 (stereo partly drawn)	-3%	0.5
Cc1cc(O)c(C(=O)N2CCC([C@H](C)N3CCN(C)CC3)CC2)cn1	-14%	1.7
O=C(Nc1ccccc1-c1nc2ccccc2[nH]c1=O)c1ccccc1Cl	-5%	0.73
COc1ccc(N[C@@H](C)C(=O)Nc2ccc3c(c2)OCCO3)c(OC)c1	0%	0.02
Cc1ncn(-c2cc(NCCNC(=O)C(C)(C)C)ncn2)c1C	-3%	0.48
Cc1c(CC(=O)NC(C)(C)CO)c2c(n1Cc1ccccc1)CCCC2=O	-15%	1.98
Cc1ccc(CNC[C@H](O)c2cccnc2)c(Br)c1	7%	-0.68
O=C(NS(=O)(=O)[C@H]1CCCOC1)c1c[nH]c(C(F)(F)F)c1	-1%	0.25
Cc1cc(C)c(CN2CCC3(CC2)COC(=O)O3)c(-n2cccn2)c1	-4%	0.76
N#Cc1ccccc1S(=O)(=O)NC(C1CC1)C1CC1	-9%	0.89
CCOC(=O)Cn1nc[n+]2nc(C)c(CC)c([O-])c12	-4%	0.46
